Results on 31 molecules are retold here after PMC9911399, “Two distinct binding modes provide the RNA-binding protein RbFox with extraordinary sequence specificity”.

Residue numbers refer to the chain shown, from its start. Some of the results follow.

Sequences and labels used below:
T1: RBFOX1 RRM RbFoxmut (Fox-RRM*) (Homo sapiens, UniProt Q9NWB1 109-208, R118D;E147R;N151S;E152T)
T1 sequence: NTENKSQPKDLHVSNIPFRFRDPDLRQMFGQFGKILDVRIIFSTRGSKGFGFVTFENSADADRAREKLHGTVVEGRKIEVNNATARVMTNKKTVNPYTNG

B1: AGGGGUG (DNA:RNA)
RNA: GGGAGACCGGAAUUCAGAUUGUCCAGGGGUGUUAAAUCCCGUCGUAGCCACCA
DNA 1: CAATCTGAATTCCGGTCTCCC
DNA 2: TGGTGGCTACGACGGGATT
B2: UCUAAGC (DNA:RNA)
RNA: GGGAGACCGGAAUUCAGAUUGUCCUCUAAGCUUAAAUCCCGUCGUAGCCACCA
DNA 1: CAATCTGAATTCCGGTCTCCC
DNA 2: TGGTGGCTACGACGGGATT
B3: UAAAGUG (DNA:RNA)
RNA: B1 RNA with A25U, G26A, G27A, G28A
DNA 1: CAATCTGAATTCCGGTCTCCC
DNA 2: TGGTGGCTACGACGGGATT
B4: UGGAGUA (DNA:RNA)
RNA: B1 RNA with A25U, G28A, G31A
DNA 1: CAATCTGAATTCCGGTCTCCC
DNA 2: TGGTGGCTACGACGGGATT
B5: GGAAUUU (DNA:RNA)
RNA: B1 RNA with A25G, G27A, G28A, G29U, G31U
DNA 1: CAATCTGAATTCCGGTCTCCC
DNA 2: TGGTGGCTACGACGGGATT
B6: ACCCGCU (DNA:RNA)
RNA: B1 RNA with G26C, G27C, G28C, U30C, G31U
DNA 1: CAATCTGAATTCCGGTCTCCC
DNA 2: TGGTGGCTACGACGGGATT
B7: GUCCUCG (DNA:RNA)
RNA: B1 RNA with A25G, G26U, G27C, G28C, G29U, U30C
DNA 1: CAATCTGAATTCCGGTCTCCC
DNA 2: TGGTGGCTACGACGGGATT
B8: AUGGUAU (DNA:RNA)
RNA: B1 RNA with G26U, G29U, U30A, G31U
DNA 1: CAATCTGAATTCCGGTCTCCC
DNA 2: TGGTGGCTACGACGGGATT
B9: AUCGUAG (DNA:RNA)
RNA: B1 RNA with G26U, G27C, G29U, U30A
DNA 1: CAATCTGAATTCCGGTCTCCC
DNA 2: TGGTGGCTACGACGGGATT
B10: CCUAGGA (DNA:RNA)
RNA: B2 RNA with U25C, A29G, C31A
DNA 1: CAATCTGAATTCCGGTCTCCC
DNA 2: TGGTGGCTACGACGGGATT
B11: UUAAGGU (DNA:RNA)
RNA: B2 RNA with C26U, U27A, A29G, C31U
DNA 1: CAATCTGAATTCCGGTCTCCC
DNA 2: TGGTGGCTACGACGGGATT
B12: GUACUGC (DNA:RNA)
RNA: B2 RNA with U25G, C26U, U27A, A28C, A29U
DNA 1: CAATCTGAATTCCGGTCTCCC
DNA 2: TGGTGGCTACGACGGGATT
B13: CGCUCCG (DNA:RNA)
RNA: B1 RNA with A25C, G27C, G28U, G29C, U30C
DNA 1: CAATCTGAATTCCGGTCTCCC
DNA 2: TGGTGGCTACGACGGGATT
B14: CUCGCAC (DNA:RNA)
RNA: B1 RNA with A25C, G26U, G27C, G29C, U30A, G31C
DNA 1: CAATCTGAATTCCGGTCTCCC
DNA 2: TGGTGGCTACGACGGGATT
B15: AUGAGCG (DNA:RNA)
RNA: B1 RNA with G26U, G28A, U30C
DNA 1: CAATCTGAATTCCGGTCTCCC
DNA 2: TGGTGGCTACGACGGGATT
B16: UUCAUUU (DNA:RNA)
RNA: B2 RNA with C26U, U27C, A29U, G30U, C31U
DNA 1: CAATCTGAATTCCGGTCTCCC
DNA 2: TGGTGGCTACGACGGGATT
B17: CCUAGCG (DNA:RNA)
RNA: B2 RNA with U25C, A29G, G30C, C31G
DNA 1: CAATCTGAATTCCGGTCTCCC
DNA 2: TGGTGGCTACGACGGGATT
B18: GAGAAUA (DNA:RNA)
RNA: B1 RNA with A25G, G26A, G28A, G29A, G31A
DNA 1: CAATCTGAATTCCGGTCTCCC
DNA 2: TGGTGGCTACGACGGGATT
B19: AGGAAAA (DNA:RNA)
RNA: B1 RNA with G28A, G29A, U30A, G31A
DNA 1: CAATCTGAATTCCGGTCTCCC
DNA 2: TGGTGGCTACGACGGGATT
B20: GUUUGUG (DNA:RNA)
RNA: B1 RNA with A25G, G26U, G27U, G28U
DNA 1: CAATCTGAATTCCGGTCTCCC
DNA 2: TGGTGGCTACGACGGGATT
B21: AUGCAAA (DNA:RNA)
RNA: B1 RNA with G26U, G28C, G29A, U30A, G31A
DNA 1: CAATCTGAATTCCGGTCTCCC
DNA 2: TGGTGGCTACGACGGGATT
B22: UGCGCGA (DNA:RNA)
RNA: B1 RNA with A25U, G27C, G29C, U30G, G31A
DNA 1: CAATCTGAATTCCGGTCTCCC
DNA 2: TGGTGGCTACGACGGGATT
B23: CCGACCC (DNA:RNA)
RNA: B2 RNA with U25C, U27G, A29C, G30C
DNA 1: CAATCTGAATTCCGGTCTCCC
DNA 2: TGGTGGCTACGACGGGATT
B24: UGGAUUG (DNA:RNA)
RNA: B1 RNA with A25U, G28A, G29U
DNA 1: CAATCTGAATTCCGGTCTCCC
DNA 2: TGGTGGCTACGACGGGATT
B25: CCAAGGU (DNA:RNA)
RNA: B2 RNA with U25C, U27A, A29G, C31U
DNA 1: CAATCTGAATTCCGGTCTCCC
DNA 2: TGGTGGCTACGACGGGATT
B26: GUUAGAG (DNA:RNA)
RNA: B1 RNA with A25G, G26U, G27U, G28A, U30A
DNA 1: CAATCTGAATTCCGGTCTCCC
DNA 2: TGGTGGCTACGACGGGATT
B27: GUUAUGC (DNA:RNA)
RNA: B2 RNA with U25G, C26U, A29U
DNA 1: CAATCTGAATTCCGGTCTCCC
DNA 2: TGGTGGCTACGACGGGATT
B28: UGUACUC (DNA:RNA)
RNA: B2 RNA with C26G, A29C, G30U
DNA 1: CAATCTGAATTCCGGTCTCCC
DNA 2: TGGTGGCTACGACGGGATT
B29: AGGUAAC (DNA:RNA)
RNA: B1 RNA with G28U, G29A, U30A, G31C
DNA 1: CAATCTGAATTCCGGTCTCCC
DNA 2: TGGTGGCTACGACGGGATT
B30: ACUAGGU (DNA:RNA)
RNA: B2 RNA with U25A, A29G, C31U
DNA 1: CAATCTGAATTCCGGTCTCCC
DNA 2: TGGTGGCTACGACGGGATT
B31: CCUCCAG (DNA:RNA)
RNA: B2 RNA with U25C, A28C, A29C, G30A, C31G
DNA 1: CAATCTGAATTCCGGTCTCCC
DNA 2: TGGTGGCTACGACGGGATT

The target of the assay is T1, RBFOX1 RRM RbFoxmut (Fox-RRM*). The assay is described as follows: EMSA; HiTS-Eq, 1 nM pool, 10 min; buffer printed only for the single-RNA assays: 10 mM Tris pH 7.5, 150 mM NaCl, 3.4 mM EDTA, 0.001% NP-40, 30 C. The note with it: tags: His6 N-terminal (pET28a); label: 5' 32P. The essentials: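 Purified wild-type or mutant RbFox RRM at increasing concentrations was equilibrated with 1 nM of 5′-radiolabelled RNA carrying 7 randomized nucleotides for 10 min in 50 µL. Unbound RNA was separated by 8% native PAGE and sequenced. Relative association constants came from read-count changes of each RNA species compared with the control reaction, normalised to the cognate motif.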
As for B1, the binding signal was 0.241 KA relative to UGCAUGU.

Regarding B2, the binding signal is 0.102 KA relative to UGCAUGU.

B3: the binding signal is 0.12 KA relative to UGCAUGU.

With B4, the binding signal is 0.168 KA relative to UGCAUGU.

Regarding B5, the binding signal was 0.0957 KA relative to UGCAUGU.

As to B6, the binding signal is 0.0816 KA relative to UGCAUGU.

For B7, the binding signal is 0.114 KA relative to UGCAUGU.

For B8, the binding signal is 0.211 KA relative to UGCAUGU.

On to B9, for which the binding signal is 0.176 KA relative to UGCAUGU.

On to B10, for which the binding signal is 0.0816 KA relative to UGCAUGU.

Take B11: the binding signal was 0.0813 KA relative to UGCAUGU.

As for B12, the binding signal is 0.0789 KA relative to UGCAUGU.

For B13, the binding signal was 0.0874 KA relative to UGCAUGU.

On to B14, for which the binding signal was 0.11 KA relative to UGCAUGU.

For B15, the binding signal was 0.197 KA relative to UGCAUGU.

Regarding B16, the binding signal was 0.0915 KA relative to UGCAUGU.

For the molecule B17, the binding signal was 0.116 KA relative to UGCAUGU.

Consider B18, for which the binding signal was 0.152 KA relative to UGCAUGU.

As for B19, the binding signal is 0.0979 KA relative to UGCAUGU.

Take B20: the binding signal is 0.462 KA relative to UGCAUGU.

B21: the binding signal was 0.0951 KA relative to UGCAUGU.

For the molecule B22, the binding signal is 0.0898 KA relative to UGCAUGU.

Take B23: the binding signal is 0.0683 KA relative to UGCAUGU.

With B24, the binding signal was 0.526 KA relative to UGCAUGU.

For the molecule B25, the binding signal was 0.1 KA relative to UGCAUGU.

Consider B26, for which the binding signal is 0.13 KA relative to UGCAUGU.

As for B27, the binding signal was 0.21 KA relative to UGCAUGU.

On to B28, for which the binding signal was 0.0695 KA relative to UGCAUGU.

Turning to B29, the binding signal is 0.0778 KA relative to UGCAUGU.

For B30, the binding signal is 0.117 KA relative to UGCAUGU.

Turning to B31, the binding signal was 0.101 KA relative to UGCAUGU.
